# Assay results: PubChem BioAssay AID1794842 (National Center for Advancing Translational Sciences (NCATS), 2023)
# The campaign covered roughly 2,800 compounds. Fewer than 10 were called active. The call rests on the fitted dose curve; in most records, active means well fitted curve in the direction sought with a large enough effect; inconclusive means small, poorly fitted or top-dose-only effect, or another doubt; inactive means no such curve, though single readings can be large or run the other way. The list shows a part of the results.
# Biological target: Metallo-beta-lactamase type 2 (Klebsiella pneumoniae) (UniProt C7C422)
# Sequence of UniProt C7C422 (C7C422 whole entry, looked up): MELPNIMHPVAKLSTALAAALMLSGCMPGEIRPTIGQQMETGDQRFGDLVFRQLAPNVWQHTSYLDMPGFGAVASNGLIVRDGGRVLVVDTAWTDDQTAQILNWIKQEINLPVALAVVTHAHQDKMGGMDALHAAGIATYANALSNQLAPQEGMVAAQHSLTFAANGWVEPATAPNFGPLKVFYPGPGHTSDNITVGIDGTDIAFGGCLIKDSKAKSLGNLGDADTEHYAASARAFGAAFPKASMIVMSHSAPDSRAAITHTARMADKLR
# Assay: qHTS to identify inhibitors of the New Delhi Metallo-beta-lactamase (NDM): Meropenem screen against the machine-based learning selections. Further: % of control where 0% means no effect.
# Details: Purified NDM-1, meropenem hydrolysis, absorbance 300 nm; at 38.4 µM (top of the series) unless noted
# Summary of the method: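 Hydrolysis by 2 nM NDM-1 was followed by absorbance after >30 min compound preincubation in HEPES pH 7.0 buffer with 1 uM Zn2SO4. For nitrocefin (16.7 uM, 15 min, 485 nm) and meropenem (50 uM, 30 min, 300 nm), each substrate ran on separate plates.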
row,Compound,"activity change, negative = inhibition"
1,CCNC(=O)[C@@H]1C[C@H](n2cc(CN(C)C(=O)NC3CCCCC3)nn2)CN1,inactive: 62%
2,CN1CCC(N2CCC[C@H]2C(=O)NCc2cc3n(n2)CCCNC3)CC1,inactive: 44.8%
3,CC[C@H]1CN(C(=O)Nc2cccc(C(F)(F)F)c2)CC[C@H]1CC(=O)Nc1ccccc1,inactive: 0.122% [at 57.5 µM]
4,COc1ccc(-c2cnc3[nH]cc(CC(=O)Nc4cccnc4)c3c2)cc1,inactive: 3.64% [at 57.5 µM]
5,Oc1ccccc1CN1CCC(O)(c2csc(CN3CCc4ccccc4C3)n2)CC1,inactive: 0.65%
6,COCCNc1ncc(-c2cccc(N[S+](C)(=O)[O-])c2)c2c1OCC2,inactive: 10.3% [at 57.5 µM]
7,COC[C@H]1CCCN1Cc1nc(C2(O)CCN(C3CCC3)CC2)cs1,inactive: 0.513% [at 57.5 µM]
8,COc1ccc(-c2[nH]ncc2CNC(=O)C2NCCc3[nH]cnc32)cc1 (stereo not drawn),inactive: 47%
9,O=C(NCc1ccc(F)cc1)c1ccnc(-c2nnc3ccc(Nc4ccccc4)nn23)c1,inactive: 19.4%
10,O=C(NC[C@H]1OC[C@@H](NCc2ccccc2)[C@@H]1O)c1ccccc1,inactive: -1.32% [at 57.5 µM]
11,CN(C)c1nccnc1OC1CCN(C(=O)CCCc2ccccc2)C1 (stereo not drawn),inactive: -0.852%
12,O=C(N[C@H]1CCN2C(=O)c3cc(-c4cccc(C(F)(F)F)c4)ccc3NC(=O)[C@@H]2C1)c1ccncc1,inactive: 1.42%
13,FC(F)(F)c1ccc(N2CCC(N[C@@H]3C[C@@H]4OCC[C@@H]43)CC2)nc1,inactive: 10.6%
14,NC(=O)Cc1c[nH]c2ncc(-c3ccc(F)cc3)cc12,inactive: 12.5% [at 76.7 µM]
15,COC[C@H]1C[C@@H](NS(C)(=O)=O)[C@H](O)[C@@H]1O,inactive: 0.519% [at 76.7 µM]
16,COCCNc1cc(-c2noc([C@@H]3CCCN3Cc3ccccn3)n2)ccn1,inactive: 7.4% [at 57.5 µM]
17,CC1=C[C@@H](CNC2CCOCC2)[C@H](C(C)C)C[C@H]1Cc1nc2ccc(Cl)cc2[nH]1,inactive: 8.32% [at 57.5 µM]
18,COCC1(CNCc2ccc(F)cc2)C[C@@H](O)[C@@H](O)C1 (stereo partly drawn),inactive: 6.53% [at 76.7 µM]
19,COc1ccc(C(=O)Nc2ccc([C@H]3OCC(=O)N(Cc4cccnc4)[C@@H]3CO)cc2)cc1,inactive: 5.15%
20,C=CCc1cc(C2CC(=O)Nc3[nH]ncc32)cc(OCC)c1OC (stereo not drawn),inactive: 1.43%
21,COCc1cn([C@H]2CO[C@H]3[C@@H]2OC[C@H]3OC(=O)Nc2cccc(C(F)(F)F)c2)nn1,inactive: 1.63% [at 57.5 µM]
22,O=C(O)C[C@@H]1CCN(C(=O)c2cccs2)C[C@@H]1CCN1CCN(c2cccc(C(F)(F)F)c2)CC1,inactive: 28.9%
23,CCn1ccc(C(=O)N2CCCC(c3nn(C)c(=O)n3-c3ccccc3)C2)n1 (stereo not drawn),inactive: 0.0344%
24,COc1ccc(CC(=O)Nc2ccc([C@H]3OCC(=O)N(Cc4scnc4C)[C@@H]3CO)cc2)cc1,inactive: -0.818%
25,O=C(c1ccc(CNc2nccc(-c3cccnc3)n2)cc1)N1CCCCC1,inactive: -3.9%
26,CCNC(=O)O[C@@H]1CO[C@H]2[C@@H]1OC[C@@H]2NC(=O)c1ccccn1,inactive: 0.441% [at 57.5 µM]

row,Compound,"activity change, negative = inhibition"
1,O=C(O)C[C@@H]1CCN(S(=O)(=O)c2ccccc2)C[C@@H]1CCN(CCN1CCOCC1)c1ccccc1,inactive: 15.4%
2,CCc1cc(=O)n(CC(=O)Nc2cc(OC)cc(OC)c2)c(N2CCOCC2)n1,inactive: -3.6%
3,COc1cccc(N2CC(C(=O)NCC(F)(F)F)NC2=O)c1 (stereo not drawn),inactive: 0.0508% [at 57.5 µM]
4,CC(=O)Nc1ccc(CN2CCN3C(=O)N(Cc4ccc(C)cc4)C[C@H]3C2)cc1,inactive: 1.32% [at 57.5 µM]
5,OCCc1ccc(Nc2cnc3ccc(-c4ccc(F)cc4)nn23)cc1,inactive: 43.8% [at 57.5 µM]
6,Cc1cc(Cn2cc3c4c(cccc42)[C@H](CC(C)C)N[C@H](C(=O)O)C3)no1,inactive: 71.3% [at 57.5 µM]
7,OC[C@@H]1O[C@H](CN(Cc2cccc(Cl)c2)Cc2cccc(Cl)c2)[C@H](N2CCN(c3ccccn3)CC2)[C@@H]1O,inactive: 58.1%
8,CC(=O)NC1(C)CCCN(Cc2cc(-c3cccc(C(F)(F)F)c3)cs2)C1 (stereo not drawn),inactive: -0.584% [at 57.5 µM]
9,O=C(NCCc1nccc(-c2ccccc2)n1)c1ccc2cccc(F)c2n1,inactive: 5.23%
10,O=C1Nc2ccc(-c3ccccc3F)cc2C(=O)N2CC[C@H](NS(=O)(=O)c3cccs3)[C@@H]12,inactive: -0.292%
11,COC(=O)[C@@H]1Cc2ncn(C)c2CN1C(=O)c1ccc(-c2ccccc2)cc1,inactive: 15% [at 57.5 µM]
12,O=C(Cc1c[nH]c2ncc(-c3ccc(Cl)cc3)cc12)NCc1cccnc1,inactive: -0.899% [at 57.5 µM]
13,CCn1cc(CN2CCc3ccccc3C2)ccc1=O,inactive: 1.57%
14,C=CCC1(CO)CCCN(CCOc2ccc(C)cc2Cl)C1 (stereo not drawn),inactive: 1.22%
15,NC(=O)[C@H](Cc1cccs1)NC(=O)C1=C[C@@H](NC(=O)NC2CCCCC2)[C@@H](O)[C@H](O)C1,inactive: -0.293%
16,O=C(O)c1cccc(-c2n[nH]c3c2CC(=O)N(c2ccccc2)C3)c1,inactive: 19.1% [at 57.5 µM]
17,COc1ccc(-c2nc(C(C)C)nc3c2CCN(C(=O)C2CCCC2)CC3)cc1,inactive: -2.95%
18,CNC(=O)Cn1nc(C(=O)N2CCCC(CO)(CC3CC3)C2)cc1C (stereo not drawn),inactive: 4.54%
19,C=CCC1(CO)CCCN(CC(=O)NCCc2ccc(Cl)cc2)C1 (stereo not drawn),inactive: -0.725%
20,CCOC(=O)C1CCN(Cc2ccccc2OCC(O)CN(C)C2CCCCC2)CC1 (stereo not drawn),inactive: -1.16%
21,c1ccc2sc([C@H]3CCN(C4CCC4)C3)nc2c1,inactive: -0.754% [at 76.7 µM]
22,O=C(Cc1c[nH]c2ncc(-c3ccccc3F)cc12)NCc1cccnc1,inactive: 0.902% [at 57.5 µM]
23,CNc1ncccc1C(=O)N1CC[C@@H](c2ccc3c(c2)OCO3)[C@H](O)C1,inactive: -5.73%
24,CC(=O)c1ccc(NC(=O)O[C@@H]2CO[C@H]3[C@@H]2OC[C@@H]3NC(=O)c2ccco2)cc1,inactive: -0.122% [at 57.5 µM]
25,CCn1c(CO)nnc1C1CC(NC(=O)Cc2c[nH]c3ccccc23)C1 (stereo not drawn),inactive: -1.63%
26,O=C(c1cc(-c2ccc(O)cc2)n[nH]1)N1CCCC(CCc2ccc(F)cc2)C1 (stereo not drawn),inactive: -1.21%

row,Compound,"activity change, negative = inhibition"
1,COc1ccccc1C(O)c1nc(Nc2ccc(Cl)cc2)n[nH]1 (stereo not drawn),inactive: -1.58% [at 57.5 µM]
2,CC(=O)Nc1cccc(-c2ccc3ncn(Cc4ccccn4)c(=O)c3n2)c1,inactive: 13.2% [at 57.5 µM]
3,COc1cc2c(cc1CN1CCCC(O)(CN(C)C)C1)OCCCO2 (stereo not drawn),inactive: -0.852%
4,Cc1ccccc1C(=O)Nc1ccc([C@H]2OCC(=O)N(C)[C@@H]2CO)cc1,inactive: -0.834% [at 57.5 µM]
5,CCOc1ncccc1C(=O)N1CCc2[nH]nc(-c3cccc(F)c3)c2C1,inactive: 0.0138%
6,O=C(c1csc(Cc2ccccc2)n1)N1CCC2(CCNCC2)CC1,inactive: 12.3%
7,CCCC(C)N1CC2(CCN(C(=O)c3cc(Cl)ccc3C)CC2)OC1=O (stereo not drawn),inactive: 0.824%
8,COC(=O)c1ccc2nc(C[C@@H]3C[C@@H](C(C)C)[C@H](CNC4CCOCC4)C=C3C)[nH]c2c1,inactive: 0.291%
9,Cn1cncc1-c1nnc([C@H]2CCN(C(=O)c3ccncc3)C2)o1,inactive: -1.21% [at 57.5 µM]
10,O=C(NCC1CCCO1)c1ccnc(-c2nnc3ccc(Nc4ccccc4)nn23)c1 (stereo not drawn),inactive: 6.26% [at 57.5 µM]
11,Cc1noc(C)c1S(=O)(=O)N1CCCN(Cc2ccncc2)C(c2ccccc2)CC(=O)NCC1 (stereo not drawn),inactive: 0.0151%
12,Oc1ccccc1CN1CCNc2cnc(Nc3ccccc3)cc2C1,inactive: 8.16% [at 57.5 µM]
13,O=C(c1[nH]nc2c1COc1ccccc1-2)N1CCCC(Cc2nc(C3CCOCC3)no2)C1 (stereo not drawn),inactive: 6.21%
14,Cc1ccccc1-c1[nH]nc2ncc(-c3ccsc3)nc12,inactive: 3.14% [at 76.7 µM]
15,CC(C)c1cccc(-c2cc(NCc3ccccn3)nc3[nH]ccc23)n1,inactive: 2.88%
16,FC(F)(F)c1ccnc(-c2cc(NCc3ccccn3)nc3[nH]ccc23)c1,inactive: 1.07%
17,COC(=O)C1CCN(CC(O)COc2cccc(CN3CC=C(C)CC3)c2)CC1 (stereo not drawn),inactive: -0.28%
18,Cc1nnc2n1C(C)CN(C(=O)CCc1nc(-c3ccncc3)no1)C2 (stereo not drawn),inactive: 0.268%
19,N#Cc1cccc(CN2CC[C@H](c3nc4ccccc4[nH]3)C2)c1,inactive: 0.152% [at 57.5 µM]
20,CN(Cc1ccsc1)C(=O)c1ccc(C#CC(C)(C)O)o1,inactive: 8.92%
21,COc1ccc(OC)c(CNC(=O)CC2CCOCC2)c1,inactive: -0.451%
22,Cc1noc2nc3c(c(C(=O)N[C@H]4CC[C@H]4NC4CCCC4)c12)CCC3,inactive: 2.19%
23,O=C(N[C@@H]1CCOC[C@H]1OCCO)c1cc(-c2ccsc2)n[nH]1,inactive: -0.347%
24,Cn1ccnc1-c1ccc(N2CC[C@](C)(O)[C@@H](O)C2)nn1,inactive: 11.3%
25,CC(C)(C)c1ccc(-c2cc(C[C@H]3CNCC[C@H]3CC(=O)NCc3cccs3)no2)cc1,inactive: -3.86%
26,Fc1ccc(-c2nnc3ccc(NCCc4ccccc4)nn23)nc1,inactive: 13.9% [at 57.5 µM]
